Consider 25 molecules from PubChem BioAssay AID463173 (ICCB-Longwood Screening Facility, Harvard Medical School, 2010).

The campaign covered roughly 52,000 compounds. About 1,700 (3.3%) were called active. Rule as the data show it: active = survival mostly below about 52% (no sharp cut-off); inactive = mostly above about 56%. This is one part of the list.

The subject of the assay is Wild type. In words: S. aureus survival, RN4220 and DeltatarO strains – OD600, teichoic acid synthesis inhibitors, primary screen (AID 463173). As to conditions: S. aureus RN4220 wild type/DeltatarO growth, OD600, 18 h, stronger effect = lower value, screened at 18.75 µg/mL (by protocol).
For `CC(C)Oc1ccc(CNS(=O)(=O)c2csc(C(N)=O)c2)cc1`, the survival was inactive: 75%. In the case of `COc1ccc(-c2nc(SCC(=O)Nc3ccc4c(c3)OCO4)c(-c3ccc(F)cc3)[nH]2)cc1OC` it was inactive: 65%; in that of `O=C1c2ccccc2C(=O)C1(c1ccccc1)N1CCN(c2cccc(C(F)(F)F)c2)CC1`, inactive: 109%; in that of `CCOc1ccccc1NC(=O)CCc1nc(-c2cccc(C)c2)no1`, inactive: 79%. In the case of `Cc1ccc(-c2nc(C(=O)Nc3cccc(C#N)c3)c3n2CCCCC3)cc1` it was inactive: 114%; in that of `Cc1cccc(C(=O)OCc2cc(=O)n3nc(C4CC4)sc3n2)c1`, inactive: 89%. `COc1ccc(Cl)cc1NC(=O)c1cc2ccccn2n1`: the survival is inactive: 146%. As to `Cc1nc2nncn2c(Nc2ccc(F)cc2)c1C`, the survival is inactive: 83%. In the case of `CCC(=O)N1CCc2cc(S(=O)(=O)NCCC(=O)NCc3ccc(OC)cc3)ccc21` it was inactive: 72%. `COc1cccc(-n2c(=O)c3sccc3n(Cc3cc(=O)n4cc(Cl)ccc4n3)c2=O)c1`: the survival is inactive: 91%. In the case of `CCNc1nc2ccccc2s1`, the survival is inactive: 104%. Turning to `CCCn1c(N2CCN(Cc3ccc(Cl)cc3)CC2)nc2ccccc21`, the survival was inactive: 123%.

For the molecule `Cc1ccc(C(=O)Nc2cc3cc(Cl)ccc3oc2=O)cc1`, the survival was inactive: 77%. In the case of `Cc1ccc(-c2nc(CCNC(=O)C(=O)Nc3ccc(F)cc3F)cs2)cc1` it was inactive: 63%. On to `Cc1ccc2c(c1)N(CC(=O)NCCCN1CCCCC1)C(=O)c1cccnc1O2`, for which the survival is inactive: 86%. In the case of `COc1ccccc1CNC(=O)CCCN1C(=O)CCn2nc(-c3cn(C)c4ccccc34)cc21` it was inactive: 69%; in that of `Cc1ccc(-c2nc3sc(CCNC(=O)c4ccco4)c(C)n3n2)cc1`, inactive: 82%; in that of `CC(C)C(=O)Nc1c(C(=O)N2CCN(c3ccccc3F)CC2)oc2ccccc12`, inactive: 49%. To `Fc1ccc(C(c2nnc(-c3ccccc3)o2)N2CCN(c3ccccc3)CC2)c(Cl)c1` (stereo not given) belongs inactive: 66%; to `Cc1cc(NS(=O)(=O)c2ccc(NC(=S)NC(=O)c3ccccc3)cc2)no1`, inactive: 99%. On to `Cc1ccc(CSc2nc3ccncc3n2Cc2nc(-c3ccc(Cl)cc3)oc2C)cc1`, for which the survival is inactive: 68%. In the case of `COc1cc(Cl)c(C)cc1NC(=O)c1nn(-c2ccc(C)cc2)c(=O)n(C)c1=O` it was inactive: 66%; in that of `CCOc1ccc(S(=O)(=O)N(C(C)=O)c2ccc3oc(C)c(C(=O)OC)c3c2)cc1`, inactive: 130%. In the case of `COc1cccc(NC(=O)CSc2c(C)cnc3c2c(=O)n(C)c(=O)n3C)c1` it was inactive: 111%; in that of `CCCOC(=O)c1c(NC(=O)c2cc3nc(-c4ccc(OC)cc4)cc(C(F)(F)F)n3n2)sc2c1CCCC2`, inactive: 122%.
